Drawing on publication PMC12767070, this text covers binding for two substances.

The chains behind the UniProt entries cited, without tags or fusion partners.
UniProt Q9R190: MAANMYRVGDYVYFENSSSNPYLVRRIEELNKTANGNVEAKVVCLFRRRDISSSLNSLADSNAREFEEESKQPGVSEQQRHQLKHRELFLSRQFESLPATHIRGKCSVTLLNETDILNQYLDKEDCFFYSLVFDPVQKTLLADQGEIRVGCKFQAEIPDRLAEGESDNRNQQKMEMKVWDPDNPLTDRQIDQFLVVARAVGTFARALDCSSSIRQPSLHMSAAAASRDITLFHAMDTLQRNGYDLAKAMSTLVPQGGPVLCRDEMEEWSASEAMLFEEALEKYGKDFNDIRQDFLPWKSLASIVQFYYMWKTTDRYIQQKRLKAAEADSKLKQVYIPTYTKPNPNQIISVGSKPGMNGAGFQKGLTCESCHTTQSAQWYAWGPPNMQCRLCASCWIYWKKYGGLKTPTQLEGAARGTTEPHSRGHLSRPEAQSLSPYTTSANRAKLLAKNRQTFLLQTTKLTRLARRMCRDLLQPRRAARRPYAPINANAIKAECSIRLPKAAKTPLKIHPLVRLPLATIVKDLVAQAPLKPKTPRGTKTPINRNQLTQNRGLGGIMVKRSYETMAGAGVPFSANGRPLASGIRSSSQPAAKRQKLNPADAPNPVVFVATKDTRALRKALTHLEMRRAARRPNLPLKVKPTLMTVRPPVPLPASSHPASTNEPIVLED

No constants are given. Whether binding was seen depends on the method and setting. Binding seen in cells or lysates may run through a third protein. Some binding calls cover weakened binding; strength is not graded here. For some assays here: Sequences can lack the tags named with a protein.

Experiment [1] has as its target T1, Flag‐HMGB2∆79 (79 amino acids) (UniProt P30681).
T1 sequence: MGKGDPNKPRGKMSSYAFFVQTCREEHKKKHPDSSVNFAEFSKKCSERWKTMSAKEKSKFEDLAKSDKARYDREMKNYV
As to the kind of experiment: co-IP; HEK293T cells transfected with HA-MTA2-FL and full-length or truncated Flag-HMGB2 plasmids; lysate, rProtein A/G magnetic beads, Western blot.

Experiment [2] concerns the target T2, Flag‐HMGB2∆165 (165 amino acids) (UniProt P30681).
T2 sequence: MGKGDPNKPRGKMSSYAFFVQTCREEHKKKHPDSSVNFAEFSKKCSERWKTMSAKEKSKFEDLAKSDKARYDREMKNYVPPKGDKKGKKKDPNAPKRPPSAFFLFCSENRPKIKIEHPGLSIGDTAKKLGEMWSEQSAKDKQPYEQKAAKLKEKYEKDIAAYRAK
The experiment is described as above.

Experiment [3] addresses T3, Flag‐HMGB2‐full‐length (210 amino acids) (UniProt P30681).
T3 sequence: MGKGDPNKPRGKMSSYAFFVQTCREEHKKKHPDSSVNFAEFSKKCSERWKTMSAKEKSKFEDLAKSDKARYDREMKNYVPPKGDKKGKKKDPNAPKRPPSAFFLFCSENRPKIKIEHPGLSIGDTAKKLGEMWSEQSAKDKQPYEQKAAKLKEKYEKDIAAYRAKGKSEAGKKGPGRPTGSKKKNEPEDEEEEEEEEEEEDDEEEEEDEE
The experiment is described as above.

The target of experiment [4] is T4, high mobility group box 2 (HMGB2), endogenous mouse (mouse (endogenous in neonatal mouse myocardium and NMCMs)) (UniProt P30681).
T4 sequence: T3 sequence
As to the kind of experiment: co-IP; endogenous proteins in P1 mouse myocardium at 7 dpr; HMGB2 or MTA2 antibodies, Western blot.

In experiment [5] the target is T4, high mobility group box 2 (HMGB2), endogenous mouse (mouse (endogenous in neonatal mouse myocardium and NMCMs)). The experiment in a line: co-IP; endogenous proteins in NMCM lysate; primary antibody overnight at 4 °C, rProtein A/G magnetic beads, Western blot. For orientation: Immunoblotting shows a protein as a band on a membrane.

As for “HA‐MTA2‐full‐length (from UniProt Q9R190 1-668)”, the binding result in experiment [1] was “no binding”; in experiment [2] it was “binds”; in experiment [3], “binds”.
In the case of “metastasis‐associated protein 2 (MTA2), endogenous mouse (from UniProt Q9R190 1-668)”, the binding result in experiment [4] and in experiment [5] was “binds” in each case.
